Experimental data reported in PubChem BioAssay AID894 (National Center for Advancing Translational Sciences (NCATS), 2007).
Where “and” joins values, the source holds several entries; their conditions need not be identical. Identical values can stand only once. The campaign covered roughly 150,000 compounds. About 6,500 (4.3%) were called active. The shares of active, inactive and inconclusive entries below differ from those in the screen. Calls follow the shape of the dose curve; as a rule, active = well fitted inhibition curve with a large enough effect (not every such curve was filed as active); inconclusive = small, poorly fitted or top-dose-only effect, or another doubt; inactive = no such curve, though single readings can be large or run the other way. No potency is given beside an inconclusive call; the fits are too rough.

biological target: 15-hydroxyprostaglandin dehydrogenase [NAD(+)] (Homo sapiens) (UniProt P15428); assay: qHTS Assay for Inhibitors of HPGD (15-Hydroxyprostaglandin Dehydrogenase); conditions: purified HPGD, NADH fluorescence kinetic, PGE2 substrate; activity change, negative = inhibition: hits give low values
Sequence of UniProt P15428 (P15428 whole entry, looked up): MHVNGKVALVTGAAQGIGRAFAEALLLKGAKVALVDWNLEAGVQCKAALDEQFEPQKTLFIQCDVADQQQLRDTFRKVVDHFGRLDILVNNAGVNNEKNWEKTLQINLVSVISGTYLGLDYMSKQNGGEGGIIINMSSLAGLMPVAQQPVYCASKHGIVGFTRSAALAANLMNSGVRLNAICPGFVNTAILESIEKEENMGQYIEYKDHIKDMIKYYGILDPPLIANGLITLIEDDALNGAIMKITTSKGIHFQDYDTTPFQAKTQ
Procedure, shortened: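 NADH formation kinetics: reaction with 30 uM PGE2 and 1 mM NAD+ (final), 20 nM enzyme, Tris-HCl pH 8 with Tween 20, after 15 min compound preincubation at room temperature. Fluorescence change, last versus first of five reads.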
% is scaled to controls: 0 for no effect and ±100 for the full control effect; potency is read from the fitted curve at half-maximal effect; tags tell the direction and shape of the fitted curve.

Row | SMILES | activity change, negative = inhibition | Potency
1 | O=C1C2C3C=CC(C3)C2C(=O)N1/N=C/c1ccc(-c2ccccc2[N+](=O)[O-])o1 (configuration not stated) | inactive: -21.9% | –
2 | COc1ccc2c(c1OC)C(=O)OC2CC(=O)c1ccc(O)cc1 (configuration not stated) | – | active: 25.1 µM
3 | COc1cccc(-n2nnc3c(=O)n(CC(=O)N4CCCCC4)cnc32)c1 | – | inconclusive [inhibitor, single point]
4 | COc1ccccc1NC(=O)C1=C(C)Nc2nc(CCCO)nn2C1c1ccc2c(c1)OCO2 (configuration not stated) | – | inconclusive [inhibitor, single point]
5 | Cc1nc2c(c(=O)n1Cc1ccccc1Cl)c1nc3ccccc3nc1n2Cc1ccco1 | – | inconclusive [inhibitor, partial curve]
6 | COC(=O)C1=C(C)N(Cc2ccc(C)cc2)C(=O)/C1=C\c1ccc(O)c(OC)c1 | – | inconclusive [inhibitor, single point]
7 | COc1cc(/C=C2\SC(c3ccc(C)cc3)=NC2=O)cc(OC)c1OC | – | inconclusive [inhibitor, single point]
8 | COC(=O)C1=C(C)OC(N)=C(C#N)C1c1c(C)nn(-c2ccccc2)c1Cl (configuration not stated) | – | inconclusive [inhibitor, partial curve]
9 | CS(=O)(=O)Nc1ccc2c3c(cccc13)CC2 | – | inconclusive [inhibitor, single point]
10 | COCCCn1c(SCc2cccc(C(F)(F)F)c2)nc2cc(OC)c(OC)cc2c1=N | – | inconclusive [inhibitor, partial curve]
11 | CC1(C)CC(CC(=O)Nc2ccccc2[N+](=O)[O-])C(=O)O1 (configuration not stated) | inactive: -21% | –
12 | CC(Nc1cc(N2CCNCC2)ccc1[N+](=O)[O-])c1ccccc1 (configuration not stated) | – | inconclusive [inhibitor, partial curve]
13 | Cc1ccc(Nc2nc(-c3c(C)nc4ncccn34)cs2)cc1 | – | inconclusive [inhibitor, single point]
14 | CC(C)CCOc1ncnc2c1sc1nc3c(cc12)CSC(C)(C)C3 | – | inconclusive [inhibitor, single point]
15 | Cc1cc(=O)n(CC=C(Cl)Cl)c2ccccc12 | – | active: 7.94 µM
16 | COCCNC(=O)c1ccc(N(C)S(=O)(=O)c2ccc(OC)c(OC)c2)cc1 | – | active: 6.31 µM
17 | O=C(O)c1ccc(CSc2n[nH]c(-c3ccco3)n2)cc1 | – | active: 2.82 µM
18 | COC(=O)c1ccc(NC(=O)CN2C(=O)C3C4C=CC(C4)C3C2=O)cc1 (configuration not stated) | – | active: 20 µM
19 | CC(=O)N1CCn2c3c(c(=O)c4cc(C)ccc42)CCC31 (configuration not stated) | – | inconclusive [inhibitor, partial curve]
20 | Cc1ccc(NC(=O)CCC(=O)NNC(=O)c2cccc([N+](=O)[O-])c2)cc1C | inactive: 0.774% | –
21 | COc1cccc(C2CC(c3cccs3)=NN2C(=O)CSc2nc3ccccc3o2)c1OC (configuration not stated) | – | inconclusive [inhibitor, partial curve]
22 | COc1cccc(/C=N/NC(=O)c2ccc(OCc3cccc(Br)c3)cc2)c1 | – | inconclusive [inhibitor, partial curve]
23 | Cc1cc2c3c(cccc3n1)C(=O)c1ccccc1-2 | inactive: -3.32% | –

Row | SMILES | activity change, negative = inhibition | Potency
24 | COc1ccc(C(=O)NCc2nnc(SCC(=O)N3CCc4ccccc43)n2Cc2ccccc2)cc1 | inactive: -17.2% | –
25 | C(=N\C(/N=C/c1ccco1)c1ccco1)/c1ccco1 | – | inconclusive [inhibitor, partial curve, poor fit]
26 | CN(CCO)c1c2c(nc3cc(-c4cccc(F)c4)nn13)CCCC2 | – | inconclusive [inhibitor, partial curve]
27 | c1ccc2c(c1)ncn2CCCCOc1ccc2c(c1)CCC2 | – | inconclusive [inhibitor, single point]
28 | COc1ccc(OC)c(NC(=O)c2cc(-c3cc(Cl)ccc3O)n[nH]2)c1 | – | inconclusive [inhibitor, partial curve]
29 | C=C(C)c1cccc(C(C)(C)NC(=O)N(Cc2ccccc2)Cc2ccco2)c1 | inactive: -11.2% | –
30 | O=C1C(NS(=O)(=O)c2cccs2)=C(N2CCN(c3ccccc3)CC2)C(=O)c2ccccc21 | inactive: -25% | –
31 | C[C@H]1C(c2cccc(Cl)c2)=NN(c2ccccc2)[C@@H]1CO | – | inconclusive [inhibitor, partial curve]
32 | O=C(c1cc2ccccc2oc1=O)N1CCN(c2ncccn2)CC1 | inactive: -11.5% | –
33 | O=C(NC1CCCCC1)C(c1cccs1)N(Cc1cccs1)C(=O)c1ccco1 (configuration not stated) | inactive: -12.3% | –
34 | CC(C)(C)c1ccc(C(=O)Nc2nonc2-c2nc3ccccc3[nH]2)cc1 | – | inconclusive [inhibitor, partial curve]
35 | COC(=O)CCCC1=CC2=CC(=O)C(C)(OC(=O)c3cccs3)C(=O)C2=CN1C(CO)CO (configuration not stated) | inactive: 1.79% | –
36 | CCC(=O)Nc1ccc2nc(SCC(=O)N3CCCC3)sc2c1 | – | active: 15.8 µM
37 | N=c1c(C(=O)NCc2ccccc2)cc2c(=O)n3ccccc3nc2n1CCCN1CCOCC1 | – | inconclusive [inhibitor, partial curve]
38 | COC(=O)c1ccc(OC(=O)C2CC(=O)N(c3cccc(C)c3)C2)cc1 (configuration not stated) | – | inconclusive [inhibitor, partial curve]
39 | CC1CCN(c2nc3ccc(C(=O)N4CCN(Cc5ccccc5)CC4)cc3s2)CC1 | – | active: 14.1 µM
40 | COc1ccc(NC(=O)CSc2nc3c(c(=O)n2-c2ccc(C)cc2)SCC3)c(OC)c1 | – | inconclusive [inhibitor, partial curve]
41 | NC(=O)c1cc[n+](CC2=C(C(=O)O)N3C(=O)C(NC(=O)C(c4ccccc4)S(=O)(=O)[O-])C3SC2)cc1 (configuration not stated) | – | active: 31.6 µM
42 | COC(=O)c1cc2c(=O)n3ccccc3nc2n(C)c1=N | – | inconclusive [inhibitor, partial curve]
43 | O=C(NCc1ccccc1)c1ccc(CN(c2ccccn2)S(=O)(=O)c2ccccc2)cc1 | – | inconclusive [inhibitor, partial curve]
44 | Cc1onc(-c2ccccc2)c1C(=O)N/N=C/c1cc(Br)c(Br)o1 | – | inconclusive [inhibitor, single point]
45 | COc1ccc(OC)c(Nc2cc(C)nc3nc(C)nn23)c1 | – | active: 2 µM
46 | CC(C)C(=O)c1c(C(C)C)nn2ccccc12 | inactive: -18.7% and inactive: -13.2% | –

Row | SMILES | activity change, negative = inhibition | Potency
47 | COC(=O)c1cc(C(=O)Nc2nnc(C3CC3)s2)cc([N+](=O)[O-])c1 | – | inconclusive [inhibitor, partial curve]
48 | O=C(Nc1ccc(Cl)cc1)N1CCCN(Cc2ccc(F)cc2)C1 | – | active: 25.1 µM
49 | CCNCCNC(=O)c1c(O)c2ccccc2n(CC)c1=O | inactive: -8.51% | –
50 | Cc1ccc2nc(SCc3nnc(-c4ccccc4[N+](=O)[O-])o3)c(C#N)cc2c1 | – | active: 1 µM
51 | Cc1cc(N2CCN(C)CC2)nc2ccc(NC(=O)CCC(=O)NCc3ccco3)cc12 | – | inconclusive [inhibitor, partial curve]
52 | CC1(C)Cc2c(C#N)c(N3CCOCC3)nc(-c3ccccc3)c2CO1 | – | inconclusive [inhibitor, partial curve]
53 | Cc1cccc(-c2c3c(=O)n(C)c(=O)n(C)c3cn2-c2ccccc2O)c1 | – | inconclusive [inhibitor, partial curve]
54 | NS(=O)(=O)c1ccc(N2N=C(c3ccccc3)CC2c2cccc(F)c2)cc1 (configuration not stated) | – | inconclusive [inhibitor, partial curve]
55 | COC(=O)Cn1nc(-c2ccccc2)c2ccccc21 | – | inconclusive [inhibitor, partial curve]
56 | Cc1cccc(OCc2nc3c4c(ncn3n2)-c2ccccc2CC42CCCC2)c1 | – | inconclusive [inhibitor, partial curve]
57 | CC(C)OCCCn1c(=S)[nH]c2ccc(N3CCOCC3)cc2c1=O | – | inconclusive [inhibitor, partial curve]
58 | COC(=O)CSc1nc(-c2cccs2)ccc1C#N | – | inconclusive [inhibitor, partial curve]
59 | NC1=C(c2ccc([N+](=O)[O-])cc2)C(=O)CO1 | inactive: -12.8% | –
60 | Cc1ccccc1C(=O)N=c1c(C#N)cc2c(=O)n3cccc(C)c3nc2n1Cc1ccco1 | – | inconclusive [inhibitor, full curve]
61 | O=C(N/N=C/CCc1ccccc1)c1ccc(CN2c3cccc4cccc(c34)S2(=O)=O)cc1 | – | inconclusive [inhibitor, partial curve]
62 | CCOC(=O)COc1ccc2c(c1)C(=O)CC(C)(c1cccnc1)O2 (configuration not stated) | – | inconclusive [inhibitor, partial curve]
63 | CCOC(=O)c1sc(NC(=O)Nc2ccc(F)cc2)nc1C | – | inconclusive [inhibitor, partial curve]
64 | CC(C)Oc1cccc(-c2cc(C(=O)N3CCN(c4ncccn4)CC3)c3ccccc3n2)c1 | – | inconclusive [inhibitor, partial curve]
65 | O=C(c1ccc(=O)oc1)N1CCN(c2ccc(F)cc2)CC1 | – | inconclusive [inhibitor, partial curve]
66 | Cc1cc(-c2ccccc2)nc2cc(C(=O)N(Cc3ccccc3)Cc3ccccc3)nn12 | – | inconclusive [inhibitor, partial curve]
67 | COc1ccc2c(c1)CCc1c(C(=O)NCc3ccc(F)cc3)noc1-2 | inactive: 1.49% | –
